Data as given in article PMC11995724, “Antibiotic target discovery by integrated phenotypic and activity-based profiling of electrophilic fragments” (Cell chemical biology, 2025).
About 75 (2%) of roughly 3,200 compounds showed an effect of 50% or more. The list shows a part of the results.

Each molecule was assayed on T1, S. aureus MSSA476. Conditions: relative growth, OD600, TSB; 25 µM; inhibitor.
T1 construct: MSSA476
Design: species or system S. aureus MSSA476 (TSB) or V. cholerae SAD30 (LB); 384-well bacterial growth screen at 25 uM, OD600 relative to DMSO control

| SMILES | % of control remaining |
| --- | --- |
| Cc1nccn1Cc1ccc(NC(=O)C(C#N)=Cc2ccco2)cc1 [9-H12, 2-cyano-3-(furan-2-yl)-N-{4-[(2-methyl-1H-imidazol-1-yl)methyl]phenyl}prop-2-enamide] | 102.772% |
| C=CC(=O)NCc1ccnn1CC(F)(F)F [1-O18, N-{[1-(2,2,2-trifluoroethyl)-1H-pyrazol-5-yl]methyl}prop-2-enamide] | 119.56% |
| C=CC(=O)NCC1CS(=O)(=O)c2ccccc2O1 (centres unmarked) [3-N17, N-[(4,4-dioxo-2,3-dihydro-1,4lambda6-benzoxathiin-2-yl)methyl]prop-2-enamide] | 109.36% |
| COc1ccc(C(=O)CCl)c(OC)c1 [10-G18, 2-chloro-1-(2,4-dimethoxyphenyl)ethan-1-one] | 124.375% |
| O=C(CCl)NC(Cn1cncn1)c1ccccc1 (centres unmarked) [7-N03, 2-chloro-N-[1-phenyl-2-(1H-1,2,4-triazol-1-yl)ethyl]acetamide] | 128.1% |
| CC(C)C(=O)Nc1ccc(C(=O)C(C)Cl)cc1 (centres unmarked) [10-E08, N-[4-(2-chloropropanoyl)phenyl]-2-methylpropanamide] | 106.875% |
| C=CC(=O)N(CC)CC(=O)N1CCC(c2nnc(C)o2)CC1 [3-A08, N-ethyl-N-{2-[4-(5-methyl-1,3,4-oxadiazol-2-yl)piperidin-1-yl]-2-oxoethyl}prop-2-enamide] | 88.4632% |
| C=CC(=O)N1CCC(c2nc(N(C)C)no2)CC1 [2-K09, 1-{4-[3-(dimethylamino)-1,2,4-oxadiazol-5-yl]piperidin-1-yl}prop-2-en-1-one] | 98.1723% |
| O=C(CCl)N1CCN(Cc2ccon2)CC1 [5-O04, 2-chloro-1-{4-[(1,2-oxazol-3-yl)methyl]piperazin-1-yl}ethan-1-one] | 95.4463% |
| C=CC(=O)N1CC[C@H](Oc2ccccc2)C1 [3-I18, 1-[(3S)-3-phenoxypyrrolidin-1-yl]prop-2-en-1-one] | 95.4288% |
| C=CC(=O)NC(C)Cn1cc(C(=O)O)cn1 (centres unmarked) [3-D10, 1-[2-(prop-2-enamido)propyl]-1H-pyrazole-4-carboxylic acid] | 89.1598% |
| O=C(CCl)NC1CC(=O)N(c2cccc(C(F)(F)F)c2)C1 (centres unmarked) [5-E09, 2-chloro-N-{5-oxo-1-[3-(trifluoromethyl)phenyl]pyrrolidin-3-yl}acetamide] | 113.661% |
| CC(Cl)C(=O)NCC1CCCCC1 (centres unmarked) [4-I10, 2-chloro-N-(cyclohexylmethyl)propanamide] | 113.578% |
| CC(Cl)C(=O)NC1CC(C)N(c2ccccc2)C1=O (centres unmarked) [5-B19, 2-chloro-N-(5-methyl-2-oxo-1-phenylpyrrolidin-3-yl)propanamide] | 99.8179% |
| O=C(CCl)NCc1ccccc1S(=O)(=O)N1CCOCC1 [4-F22, 2-chloro-N-{[2-(morpholine-4-sulfonyl)phenyl]methyl}acetamide] | 113.197% |
| C=CC(=O)N1CCC(C(=O)N2CCN(c3ccnc(C)n3)CC2)CC1 [2-L06, 1-{4-[4-(2-methylpyrimidin-4-yl)piperazine-1-carbonyl]piperidin-1-yl}prop-2-en-1-one] | 111.053% |
| C[C@H]1CN(C(=O)CCl)CCN1C(=O)c1cscn1 [5-L05, 2-chloro-1-[(3S)-3-methyl-4-(1,3-thiazole-4-carbonyl)piperazin-1-yl]ethan-1-one] | 92.5319% |
| COc1ccc(C=C(C#N)C(=O)Nc2ccc(C(=O)O)cc2)cc1C [9-G14, 4-[2-cyano-3-(4-methoxy-3-methylphenyl)prop-2-enamido]benzoic acid] | 105.468% |
| CC(Cl)C(=O)NC(c1cccs1)c1cccs1 (centres unmarked) [6-L21, N-[bis(thiophen-2-yl)methyl]-2-chloropropanamide] | 108.927% |
| C=CC(=O)NC(C)c1ccc(-n2nc(C)cc2C)c(F)c1 (centres unmarked) [3-P17, N-{1-[4-(3,5-dimethyl-1H-pyrazol-1-yl)-3-fluorophenyl]ethyl}prop-2-enamide] | 102.743% |
| C=CC(=O)NCc1coc(-c2ccc(C)cc2)n1 [2-F13, N-{[2-(4-methylphenyl)-1,3-oxazol-4-yl]methyl}prop-2-enamide] | 98.5205% |
| CC(Cl)C(=O)NCC1(n2ccnn2)CC1 (centres unmarked) [6-B20, 2-chloro-N-{[1-(1H-1,2,3-triazol-1-yl)cyclopropyl]methyl}propanamide] | 103.805% |

| SMILES | % of control remaining |
| --- | --- |
| CC(Cl)C(=O)N1CCOCC1 (centres unmarked) [5-H09, 2-chloro-1-(morpholin-4-yl)propan-1-one] | 98.3607% |
| CC(=O)Nc1ccc(NC(=O)C(C#N)=Cc2cc(F)ccc2F)cc1 [8-C12, 2-cyano-3-(2,5-difluorophenyl)-N-(4-acetamidophenyl)prop-2-enamide] | 120.498% |
| CC(=O)N1CCC(N(Cc2cncs2)C(=O)C(C)Cl)CC1 (centres unmarked) [5-H21, N-(1-acetylpiperidin-4-yl)-2-chloro-N-[(1,3-thiazol-5-yl)methyl]propanamide] | 99.0893% |
| COc1cc(Cl)ccc1CNC(=O)C(C#N)=Cc1ccco1 [9-E18, N-[(4-chloro-2-methoxyphenyl)methyl]-2-cyano-3-(furan-2-yl)prop-2-enamide] | 117.453% |
| COc1ccccc1C1CSCCCN1C(=O)CCl (centres unmarked) [5-O16, 2-chloro-1-[3-(2-methoxyphenyl)-1,4-thiazepan-4-yl]ethan-1-one] | 90.7104% |
| C=CC(=O)N(CC)Cc1cn(C)nn1 [2-O09, N-ethyl-N-[(1-methyl-1H-1,2,3-triazol-4-yl)methyl]prop-2-enamide] | 106.527% |
| O=C(CCl)Nc1ccc(Cl)c(S(=O)(=O)N2CCCCC2)c1 [4-P14, 2-chloro-N-[4-chloro-3-(piperidine-1-sulfonyl)phenyl]acetamide] | 134.159% |
| C=CC(=O)N(C)CC(=O)N1CCCc2ccccc21 [3-D15, N-methyl-N-[2-oxo-2-(1,2,3,4-tetrahydroquinolin-1-yl)ethyl]prop-2-enamide] | 95.0805% |
| CC(NC(=O)CCl)C(=O)Nc1ccc(Cl)cc1 (centres unmarked) [5-G11, 2-(2-chloroacetamido)-N-(4-chlorophenyl)propanamide] | 83.4244% |
| C=CC(=O)Nc1ccc(C(N)=O)nc1OC [1-E18, 6-methoxy-5-(prop-2-enamido)pyridine-2-carboxamide] | 89.3187% |
| Cc1nn(C)c(C)c1CN(C(=O)CCl)C1CCCCC1C (centres unmarked) [5-A14, 2-chloro-N-(2-methylcyclohexyl)-N-[(1,3,5-trimethyl-1H-pyrazol-4-yl)methyl]acetamide] | 100.546% |
| Cc1nn(C)c(C)c1C=C(C#N)C(=O)Nc1ccc2c(c1)OCCO2 [9-D03, 2-cyano-N-(2,3-dihydro-1,4-benzodioxin-6-yl)-3-(1,3,5-trimethyl-1H-pyrazol-4-yl)prop-2-enamide] | 80.2996% |
| N#CC(=Cc1c(Cl)cccc1Cl)C(=O)NCCc1ccccc1 [8-B14, 2-cyano-3-(2,6-dichlorophenyl)-N-(2-phenylethyl)prop-2-enamide] | 39.834% |
| N#CC(=Cc1ccccc1)C(=O)NC1CC1 [9-M15, 2-cyano-N-cyclopropyl-3-phenylprop-2-enamide] | 104.569% |
| CC1CN(C(=O)C(C)Cl)CC(C)O1 (centres unmarked) [5-F04, 2-chloro-1-(2,6-dimethylmorpholin-4-yl)propan-1-one] | 88.8889% |
| Cc1ccc(C=C(C#N)C(=O)Nc2ccccc2C(F)(F)F)cc1 [8-E16, 2-cyano-3-(4-methylphenyl)-N-[2-(trifluoromethyl)phenyl]prop-2-enamide] | 122.49% |
| CC(Cl)C(=O)N1CC(Cc2cccs2)C1 (centres unmarked) [7-I04, 2-chloro-1-{3-[(thiophen-2-yl)methyl]azetidin-1-yl}propan-1-one] | 105.495% |
| CC(Cl)C(=O)N1CC(C(=O)N2CCN(C)CC2)Oc2ccccc21 (centres unmarked) [7-A20, 2-chloro-1-[2-(4-methylpiperazine-1-carbonyl)-3,4-dihydro-2H-1,4-benzoxazin-4-yl]propan-1-one] | 92.9356% |
| CC(Cl)C(=O)N1CCC(c2nc3cc(F)ccc3s2)CC1 (centres unmarked) [6-J18, 2-chloro-1-[4-(5-fluoro-1,3-benzothiazol-2-yl)piperidin-1-yl]propan-1-one] | 94.2439% |
| C=CC(=O)NC1CCC(F)(F)CC1F (centres unmarked) [1-E11, N-(2,4,4-trifluorocyclohexyl)prop-2-enamide] | 81.2308% |
| C=CC(=O)NCc1ccc(C(=O)N2CCC(c3nc(C)no3)C2)cc1 (centres unmarked) [2-P08, N-({4-[3-(3-methyl-1,2,4-oxadiazol-5-yl)pyrrolidine-1-carbonyl]phenyl}methyl)prop-2-enamide] | 95.7354% |
| C=CC(=O)N1CCC(C(=O)N[C@@H]2CC[C@H](O)C2)(c2ccccc2)CC1 (racemic) [2-H16, rac-N-[(1R,3S)-3-hydroxycyclopentyl]-4-phenyl-1-(prop-2-enoyl)piperidine-4-carboxamide] | 135.074% |
